Reference: publication PMC6919601, “Identification of Plasmodium dipeptidyl aminopeptidase allosteric inhibitors by high throughput screening” (PLoS ONE, 2019)
In all, about 110,000 compounds went through this assay and about 230 (0.21%) showed an effect of 50% or more. This is one part of the list.

target: DPAP1 (Plasmodium falciparum, UniProt Q8IIJ9); experiment: primary screen, percent inhibition; read by cleavage of a fluorogenic dipeptide substrate; higher = more effect of the substance; set-up: species or system P. falciparum D10 trophozoite lysates; single well
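Further: 30 min substrate incubation versus DMSO and 10 µM JCP410 controls.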

DPAP1, sequence (Q8IIJ9 whole entry, looked up): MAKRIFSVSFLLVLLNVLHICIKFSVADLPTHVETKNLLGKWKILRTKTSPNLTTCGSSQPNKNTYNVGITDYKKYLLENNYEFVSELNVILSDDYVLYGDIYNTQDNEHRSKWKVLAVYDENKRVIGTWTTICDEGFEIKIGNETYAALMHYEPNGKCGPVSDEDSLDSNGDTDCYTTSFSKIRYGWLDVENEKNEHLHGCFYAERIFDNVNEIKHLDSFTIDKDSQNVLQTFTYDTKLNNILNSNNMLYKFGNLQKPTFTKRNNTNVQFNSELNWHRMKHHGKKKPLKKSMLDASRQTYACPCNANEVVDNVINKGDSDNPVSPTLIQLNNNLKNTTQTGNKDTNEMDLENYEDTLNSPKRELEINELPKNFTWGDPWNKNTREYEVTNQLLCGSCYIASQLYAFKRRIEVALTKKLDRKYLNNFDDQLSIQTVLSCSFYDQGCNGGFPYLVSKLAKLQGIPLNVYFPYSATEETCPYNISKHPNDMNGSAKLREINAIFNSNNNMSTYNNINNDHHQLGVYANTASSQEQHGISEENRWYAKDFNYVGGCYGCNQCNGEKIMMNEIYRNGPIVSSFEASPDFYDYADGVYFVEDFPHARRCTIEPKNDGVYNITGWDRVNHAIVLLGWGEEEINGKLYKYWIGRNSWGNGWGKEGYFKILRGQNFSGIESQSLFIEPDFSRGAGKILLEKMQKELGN

Row | SMILES | % Inhibition @ 10 uM [%]
1 | CC1CCN(Cc2c(O)ccc3ccccc23)CC1 | -3.63
2 | O=C(O)c1ccccc1S(=O)CCO (stereo not drawn) | 3.16
3 | CN1CCN(CCCNC(=O)c2cc(-c3cccnc3)nc3ccccc23)CC1 | 1.16
4 | CC(=O)N1CC[C@@]2(O)CCCC[C@@H]2[C@H]1c1cccc([N+](=O)[O-])c1 | 0.98
5 | Cc1cc(C)c(NC(=O)CCCC(=O)O)c(C)c1 | -2.55
6 | CCOC(=O)c1c(N)sc(C(C)=O)c1C | 1.42
7 | Cc1onc(-c2ccccc2Cl)c1C(=O)Nc1cccc(C(F)(F)F)c1 | 2.78
8 | CCCOc1ccc(C2c3c(-c4ccccc4O)n[nH]c3C(=O)N2CCO)cc1OCC (stereo not drawn) | -6.85
9 | COc1cc(NC(=O)C2CCN(c3cc(C)nc4c(-c5ccc(Cl)cc5)c(C)nn34)CC2)ncn1 | -0.138
10 | Cc1cc(Cl)ccc1OCC(=O)Nc1ccc(C#N)cc1 | -0.173
11 | Cc1ccccc1NC(=O)CSc1ccc(Br)cc1 | -0.413
12 | CCOC(=O)c1ccc2c(c1)c1c3n2CCNC3CCC1 (stereo not drawn) | -8.11
13 | CC(=O)Nc1ccc(/N=C/c2c(C)nn(-c3ccc(Br)cc3)c2O)cc1 | 3.65
14 | COc1ccccc1C1C(C(=O)Nc2cccnc2)=C(C)Nc2nc(SCc3ccccc3)nn21 (stereo not drawn) | -0.363
15 | O=C(Nc1cc(Cl)c(O)c(Cl)c1)c1ccccc1F | 3.91
16 | COc1ccc(C2CC(c3ccccc3)=NN2C(=O)CCCC(=O)O)cc1OC (stereo not drawn) | -5.31
17 | CC(=O)c1ccc(OCCCCCOc2ccc(C(C)=O)cc2)cc1 | -1.92
18 | CN(C)CCNc1cc(-c2cccnc2)nc2ccccc12 | 1.38
19 | CS(=O)(=O)N(CC(=O)N1CCN(c2ccccc2)CC1)c1cc(C(F)(F)F)ccc1Cl | -0.992
20 | Cc1ccc2oc(=O)c3cnn(CC(=O)N(Cc4ccco4)C4CCCCC4)c3c2c1 | -1.7
21 | Cc1ccnc(NC(=O)C2CCCN(S(=O)(=O)c3ccc4[nH]c5c(c4c3)CCCCC5)C2)c1 (stereo not drawn) | -6.26
22 | Cc1cc(C)c2nc(N3CCC(C(=O)NC4CCCCC4C)CC3)sc2c1 (stereo not drawn) | -1.58
23 | O=C(COc1ccc(Br)cc1)Nc1ccc(OC(F)F)cc1 | 0.873
24 | Cc1nc2c(-c3ccccc3)c(C)nn2c(C)c1CC(=O)N1CC(C)CC(C)C1 (stereo not drawn) | -6.09
25 | N=C1/C(=C\c2ccc(OCc3ccccc3F)cc2)C(=O)N=C2SC(N3CCOCC3)=NN12 | -1.66

Row | SMILES | % Inhibition @ 10 uM [%]
26 | CCN(CC)c1ccc([N+](=O)[O-])c2nonc12 | 0.878
27 | O=C1c2oc3ccccc3c(=O)c2C(c2ccc(Cl)cc2)N1c1nccs1 (stereo not drawn) | -5.35
28 | CCOC(=O)c1c(NC(=O)COCc2cc(-c3ccc4c(c3)OCO4)on2)sc(C)c1C | 0.56
29 | CN(C)CCCN1C(=O)C(O)=C(C(=O)c2ccc(F)cc2)C1c1ccccc1 (stereo not drawn) | 1.17
30 | O=C(/C=C/c1ccc(F)cc1)NC(=S)N1CCOCC1 | 0.0345
31 | COc1cc(/C=C2/NC(=O)N(Cc3ccc(C)cc3)C2=O)ccc1OCC(=O)O | 6.96
32 | COc1cc(OC)c(C2Nc3cccc4cccc(c34)N2)cc1OC | -0.305
33 | N#C/C(=C\c1c(Oc2ccccc2Cl)nc2ccccn2c1=O)C(=O)NCc1ccccc1 | -1.86
34 | O=C(O)/C=C/c1cccc(NS(=O)(=O)c2ccccc2)c1 | -6.29
35 | CC(C)CCNC(=O)Cn1c(SCc2cccc(C(F)(F)F)c2)nc2ccncc21 | 1.03
36 | Cc1ccc(CSCCNC(=O)CN2C(=O)c3cccc4cccc2c34)cc1 | 3.05
37 | COCc1cc(C)nc2oc(C(=O)c3ccccc3)c(N)c12 | -0.305
38 | NC1=NC(c2c[nH]nc2-c2cccc(F)c2)n2c(nc3ccccc32)N1 (stereo not drawn) | 3.66
39 | CCOC(=O)N1CCC(NCc2c(C(=O)O)c(C)n(Cc3ccccc3F)c2C)CC1 | -9.31
40 | CC(=O)c1ccc(NC(=O)COc2ccc(Cl)cc2Cl)cc1 | 0.968
41 | Cc1cccc(NC(=O)c2sc3nc(C)cc(C(F)(F)F)c3c2N)n1 | -6.62
42 | CCOC(=O)N1CCN(CC2CC=CCC2)CC1 (stereo not drawn) | -3.57
43 | O=S(=O)(Nc1cccc2c1CCCC2)c1ccc(Cl)cc1 | -0.636
44 | NS(=O)(=O)c1ccc(NC(=O)c2cccc(Br)c2)cc1 | -1.98
45 | CCn1c(CN2CC(C)CC(C)C2)nc2c1c(=O)n(C)c(=O)n2C (stereo not drawn) | 6.08
46 | Cc1nn(C(=O)CN2C(=O)c3ccccc3C2=O)c(C)c1Br | 0.146
47 | CN(C)CCOc1ccccc1C1NCCc2c1[nH]c1ccccc21 (stereo not drawn) | -1.43
48 | COc1ccc(C(=O)Nc2ccccc2Br)c(OC)c1 | 3.1
49 | Cc1ccc(S(=O)(=O)/N=C(/NCc2ccc(Cl)cc2)Nc2nc(C)cc(C)n2)cc1 | 3.87
50 | CC(CNC(=O)c1nnc(-c2ccc3c(c2)OCO3)o1)c1ccccc1 (stereo not drawn) | 3.98

Row | SMILES | % Inhibition @ 10 uM [%]
51 | CCC1(C)CC(CCNCc2ccccc2O)(c2ccccc2OC)CCO1 (stereo not drawn) | 3.16
52 | Cc1cc(/C=C2\SC(Nc3ccc(F)cc3)=NC2=O)c(C)n1-c1ccc(S(N)(=O)=O)cc1 | 12.7
53 | CC(C)(C)OC(=O)/N=C(\N)n1cccn1 | -4.11
54 | CC(C)N(C(=O)c1cccs1)C(C)C | 1.41
55 | Cc1ccc2c(c1)-c1c(cnn1CC(=O)N1CCCC1)CO2 | -11.2
56 | COc1ccc(C2CC(c3ccc(Cl)cc3Cl)Nc3nc(N)nn32)cc1 (stereo not drawn) | -1.86
57 | Cc1ccc(NC(=O)C(C)Oc2ccccc2)cc1O (stereo not drawn) | -2.65
58 | N#CC1=C(N)OC2=C(C(=O)CCC2)C1c1cc(Cl)ccc1[N+](=O)[O-] (stereo not drawn) | 4.38
59 | COc1ccc(S(=O)(=O)N(C)CC(=O)NCc2ccncc2)cc1OC | 2.49
60 | CCCN1C(=O)/C(=C\c2cccnc2)S/C1=N/c1ccccc1 | -5.49
61 | COc1cc2nc(Cl)nc(N)c2cc1OC | -0.178
62 | CCCCNC(=O)Cn1nc(C)c2sc3ccccc3c2c1=O | -0.542
63 | Cc1ccc(-n2nc3c(N4CCCC(C(=O)NCc5cccnc5)C4)nnc(C)c3c2C)cc1 (stereo not drawn) | -3.8
64 | CCOC(=O)C(C#N)c1ccccn1 (stereo not drawn) | -5.11
65 | COc1ccc(S(=O)(=O)N(CC(=O)NCc2ccccc2)c2ccccc2)cc1 | 2.02
66 | Cc1ccc(C(=O)NCc2ccc(F)cc2)s1 | 2.09
67 | O=C(Nc1ccc2[nH]c(O)nc2c1)c1cccnc1 | 5
68 | COC(=O)c1ccc(C2C3=C(O)CCCC3=Nc3ncnn32)cc1 (stereo not drawn) | -5.19
69 | CCOC(=O)c1c(NC(=O)C2(C)Cc3ccccc3C(=O)O2)sc2c1CCC(C)C2 (stereo not drawn) | -2.45
70 | COCCCNC(=O)/C(C#N)=C/c1c(Oc2ccccc2)nc2ccccn2c1=O | 1.19
71 | Nc1ccc(S(=O)(=O)N2CCC(C(=O)NC3CCCCC3)CC2)cn1 | 3.77
72 | Cc1cc(-c2ccc(C)o2)c(C#N)c(SCC(N)=O)n1 | -1.97
73 | CCC(C)NC(=O)CCCn1nc(C)c2c(C)n(-c3ccc(C)cc3)nc2c1=O (stereo not drawn) | 0.756
74 | Cc1cc(C)n2nc(SCc3cccc(Cl)c3)nc2n1 | 2.9
75 | CCCO/C(O)=C1\C(C)=NC2=C(C(=O)CC(C)(C)C2)C1c1cccc(F)c1 (stereo not drawn) | -4.75

Row | SMILES | % Inhibition @ 10 uM [%]
76 | O=C(O)c1cccnc1SCc1cccc(Br)c1 | 1.42
77 | O=C(O)CC12CC3CC(C1)CC(n1ncc(NCC4CCCO4)c(Cl)c1=O)(C3)C2 (stereo not drawn) | 3.32
78 | COc1ccc(NC(=O)c2ccc(OC(F)F)c(OC)c2)cc1Cl | 0.13
79 | OCCN1CCN(CCc2c3c(cc4c2CCC4)CCC3)CC1 | 1.19
80 | CC(C)CCNC(=O)C1CCC(C/N=c2/c(N3CCCC3)c(O)c2=O)CC1 (stereo not drawn) | -0.447
81 | CC(C)Cc1cc(C(=O)NCc2cccnc2)no1 | 1.74
82 | CCCn1c2ccccc2c2cnn(CC(=O)Nc3nccs3)c(=O)c21 | 0.244
83 | CC1(C)CC(=O)C(/C=N/CCN2CCN(C(=O)NC34CC5CC(CC(C5)C3)C4)CC2)=C(O)C1 | 4.55
84 | CC1(C)CC(=O)C2=C(C1)N=C1c3ccccc3C(=O)C1C2c1ccc(O)c(O)c1 (stereo not drawn) | 0.685
85 | O=S(=O)(c1ccc(-c2csc(Nc3cc(Cl)cc(Cl)c3)n2)cc1)N1CCOCC1 | 3.05
86 | CCc1c(C#N)c(SCC(=O)OC)nc2c1CCC2 | 4.16
87 | Cc1ccc(/C=C/C(O)=C2\C(=O)Oc3ccccc3C2=O)c(C)c1 | 0.238
88 | O=C(Cc1ccccc1)NCCCN1CCOCC1 | -4.21
89 | Cc1cc(C)c(CSc2ncnc3[nH]cnc23)c(C)c1 | 5.03
90 | CCOc1ccc(C(=O)Nc2cccc(Br)c2)cc1 | 4
91 | Cc1ccccc1OCCCCCN1CCCCC1 | -1.25
92 | CCOC(=O)c1c(C)[nH]c(C)c1S(=O)(=O)NCC(=O)N(C)Cc1ccccc1 | 2.24
93 | COc1ccc(-c2noc(CCCOc3ccc(Cl)cc3Cl)n2)cc1 | 3.66
94 | COC(=O)c1n[nH]c(N)n1 | -1.6
95 | N#CCc1ccc(NC(=O)CN(c2ccc(Cl)cc2Cl)S(=O)(=O)c2ccccc2)cc1 | -2.65
96 | Brc1ccc(-c2cc(-c3ccccc3)nc(NCc3ccccc3)n2)cc1 | -2.6
97 | NC(=O)C1CCN(C2=NC(=O)/C(=C/c3cn(-c4ccccc4)nc3-c3cc4ccccc4o3)S2)CC1 | -1.4
98 | CC(C)CS(=O)(=O)C1=NSC2=NC(=O)/C(=C\c3ccco3)C(=N)N21 | -3.39
99 | N#CCNC(=O)C(CC1CCCC1)NC(=O)OCc1ccccc1 (stereo not drawn) | -6.68
